The results in this text go back to PubChem BioAssay AID1159614 (National Center for Advancing Translational Sciences (NCATS), 2016).

Molecules are shown by their SMILES. Screen size: about 45,000 compounds; about 65 (0.1%) were called active. The call rests on the fitted dose curve; in most records, active means well fitted activation curve with a large enough effect; inconclusive means small, poorly fitted or top-dose-only effect; inactive means no such curve, though single readings can be large or run the other way. The list shows a part of the results.

In this experiment the target is Galactocerebrosidase (Homo sapiens) (UniProt P54803). As to the kind of experiment: A Novel Cell-Based Assay to Identify Small Molecules for B -Galactocerebrosidase. Further: 0% is about no effect; nearly all actives have a fitted effect of over 65% in size. The settings on record: 145M-Twi-hGALC-G270D cells (Twitcher mouse brain line with human GALC G270D), HMU-beta-Gal fluorescence, 48 h; series mostly up to 57.5 µM; activation: at the top concentration. The method, boiled down: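 Brain-derived Twitcher mouse 145M-Twi cells stably expressing human GALC-G270D or wild-type GALC, treated live, then residual GALC activity read by fluorescence of HMU-b-Gal substrate (0.1 mM final) in citrate-phosphate buffer pH 5.2 with sodium taurocholate. Signal increase indicates enhancement.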
Chain of UniProt P54803 (P54803 whole entry, looked up): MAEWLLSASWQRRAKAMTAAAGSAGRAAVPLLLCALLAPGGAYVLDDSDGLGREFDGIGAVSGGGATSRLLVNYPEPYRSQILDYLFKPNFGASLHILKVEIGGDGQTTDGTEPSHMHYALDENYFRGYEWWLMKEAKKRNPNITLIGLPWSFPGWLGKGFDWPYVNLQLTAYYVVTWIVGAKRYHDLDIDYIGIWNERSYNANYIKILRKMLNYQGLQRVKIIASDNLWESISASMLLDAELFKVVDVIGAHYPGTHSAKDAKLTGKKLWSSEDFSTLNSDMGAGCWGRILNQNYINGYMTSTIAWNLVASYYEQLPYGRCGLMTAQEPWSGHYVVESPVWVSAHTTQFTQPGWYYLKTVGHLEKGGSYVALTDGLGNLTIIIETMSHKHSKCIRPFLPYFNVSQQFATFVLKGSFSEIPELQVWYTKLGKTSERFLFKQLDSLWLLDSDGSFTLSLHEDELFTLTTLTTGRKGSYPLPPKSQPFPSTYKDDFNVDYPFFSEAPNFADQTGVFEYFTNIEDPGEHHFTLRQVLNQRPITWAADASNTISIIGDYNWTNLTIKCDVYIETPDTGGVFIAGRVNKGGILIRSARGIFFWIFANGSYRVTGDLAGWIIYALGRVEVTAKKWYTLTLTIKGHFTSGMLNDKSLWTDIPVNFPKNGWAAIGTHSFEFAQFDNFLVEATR
For the compound `Cc1c(N(C)C)c(=O)n(-c2ccccc2)n1C`, the “activation” value was inactive: -10.8%.
With `Oc1c(Cl)cc(Cl)c(Cl)c1Cc1c(O)c(Cl)cc(Cl)c1Cl` the figure was inactive: -3.3%; with `COCCCNC(=O)CSc1nc2cc3c(cc2c(=O)n1CCCC(=O)NCc1ccc(OC)cc1)OCO3`, inactive: -5.08%; with `COc1ccc(N(CC(=O)Nc2cc(C)ccc2C)S(=O)(=O)c2ccc(OC)c(OC)c2)cc1`, inactive: -2.24%.
With `O=C(COc1ccccc1[N+](=O)[O-])Nc1cccc(-c2nc3ccccc3s2)c1` the figure was inactive: -8.5%; with `Cn1c(=O)c2c(nc(Oc3ccccc3)n2Cc2c(Cl)cccc2Cl)n(C)c1=O`, inactive: -11.4%.
With `CCc1ccc(C2c3c(oc4ccc(F)cc4c3=O)C(=O)N2c2nc(C)c(C(=O)OC)s2)cc1` (stereo unspecified), the “activation” value is inactive: -13.6%.
The value for `CCOc1ccc(NC(=O)CN2C(=O)COc3ccc(S(=O)(=O)NC4CCCC4)cc32)cc1` was inactive: -38%.
Regarding `O=C(Nc1ccc(F)cc1F)c1ccc2c(O)c(S(=O)(=O)c3ccc(Cl)cc3)c(=O)[nH]c2c1`, the “activation” value was inactive: -21.4%.
With `COc1cc(NC(=O)CSc2nc3nc(C)c(Cc4ccc(C)cc4)c(C)n3n2)cc(OC)c1OC` the figure was inactive: -10.1%.
With `O=C(CSc1cn(CC(=O)N2CCOCC2)c2ccccc12)Nc1ccccc1` the figure was inactive: -6.39%; with `O=C(COCc1cc(-c2ccc3c(c2)OCO3)on1)NCc1ccccc1Cl`, inactive: -23%.
With `O=C(Nc1c(C(=O)O)oc2ccccc12)c1ccc(C(F)(F)F)cc1`, the “activation” value is inactive: -13%.
With `O=C(COc1ccccc1)Nc1ccccc1OCc1cc(=O)n2ccccc2n1` the figure was inactive: -9.04%; with `CC1=C(c2ccc(C)c(C)c2)S(=O)(=O)N(Cc2ccc(C(=O)NC(C)c3ccccc3)cc2)C1=O` (stereo unspecified), inactive: -6.41%; with `Cc1ccccc1Cc1c(C)nc2nc(SCC(=O)NCCc3ccc(Cl)cc3)nn2c1C`, inactive: -8.92%.
As to `COc1ccccc1OCC(=O)NCc1nc(-c2ccc(Cl)cc2)no1`, the “activation” value was inactive: -2.9%.
Consider `CCOc1ccc(C(=O)Nc2ccc(S(=O)(=O)Nc3nc(C)cc(C)n3)cc2)cc1OC`, for which the “activation” value was inactive: -16.1%.
With `CCOC(=O)c1cc(S(=O)(=O)N2CCN(c3ccc(C)cc3C)CC2)[nH]n1` the figure was inactive: 2.29%.
With `Cc1ccc(C)c(NC(=O)CSC2=Nc3ccccc3N=C(c3ccc(F)cc3)C2)c1` the figure was inactive: -2.59%; with `COc1cccc(N2CCN(c3ncnc4onc(-c5ccc(F)cc5)c34)CC2)c1`, inactive: -2.88%; with `Cc1ccc(S(=O)(=O)c2nnn3c2nc(N2CCCC2)c2sccc23)cc1`, inactive: -5.18%.
With `Cc1ccc(-c2nnc3c4ccccc4c(C)nn23)cc1NC(=O)c1ccccc1Cl` the figure was inactive: -4.41%.
On to `O=C(C1CCCN(S(=O)(=O)c2cccc3nsnc23)C1)N1CCN(c2ccccc2Cl)CC1` (stereo unspecified), for which the “activation” value was inactive: -14.5%.
Take `O=C(CCCCCn1c(=O)[nH]c2ccccc2c1=O)NCc1ccccc1`: the “activation” value was inactive: -13.6%.
With `Cc1ccc2c(c1)c(N1CCCC1=O)c(C(=O)Nc1ccc(F)cc1F)n2C` the figure was inactive: -24.6%; with `Cc1cccc(N(C)c2ccc3cc(S(=O)(=O)N4CCCC4)ccc3n2)c1`, inactive: -13.7%.
The value for `CCC(=O)N1CCc2cc(S(=O)(=O)NC(Cc3ccccc3)C(=O)Nc3cccc(OC)c3)ccc21` (stereo unspecified) was inactive: -3.7%; that for `Cc1nc2scc(C)n2c(=O)c1S(=O)(=O)N1CCN(c2cccc(C(F)(F)F)c2)CC1` was inactive: -10.9%; that for `CN(C)c1ccc(NC(=O)Cn2cc(S(=O)(=O)Cc3cccc(Cl)c3)c3ccccc32)cc1` was inactive: 9.11%.
The value for `Cc1cc(C(=O)NCc2ccc(Cl)cc2)c2c(C)nn(-c3ccccc3)c2n1` was inactive: -10.7%.
Regarding `COC(=O)c1c(NC(=O)Nc2ccc(Cl)cc2)sc(C)c1C`, the “activation” value was inactive: -8.64%.
The value for `COc1ccccc1CNC(=O)CCC1N=C2c3ccccc3N=C(SCc3ccc(C)cc3)N2C1=O` (stereo unspecified) was inactive: -2.78%; that for `CC(=O)c1cc(-c2ccccc2)n(CCC(=O)Nc2ccc(C)cc2C)c1C` was inactive: -17.1%; that for `COc1ccc(N2CC(NC(=O)c3cc4ccccc4o3)CC2=O)cc1` (stereo unspecified) was inactive: -9.45%.
With `CS(=O)(=O)N1CCc2cc(C(=O)N3CCN(c4ccccc4)CC3)ccc21` the figure was inactive: -26.5%; with `Cc1ccc2c(c1)N(C(=O)Nc1cccc(C)c1C)CCO2`, inactive: -21.8%; with `COc1ccc(CCC(=O)NCCc2csc(-c3ccc(C(F)(F)F)cc3)n2)cc1`, inactive: 3.84%.
With `CCCc1nnc(NC(=O)c2cc(=O)c3cc(Cl)ccc3o2)s1` the figure was inactive: -8.26%; with `COc1ccccc1NC(=O)NCc1cccn1Cc1ccccc1`, inactive: -2.04%; with `CCCC1=Nc2cc(C(=O)NCCc3ccccc3)ccc2Sc2ccc(C)cc21`, inactive: -42.2%.
For the compound `Cc1cc(Br)ccc1NC(=O)c1ccc(NS(=O)(=O)c2c(C)noc2C)cc1`, the “activation” value is inactive: -13.3%.
With `COc1ccc(CNCCC(c2ccccc2)c2ccc3c(c2)OCO3)cc1` (stereo unspecified) the figure was inactive: -16.9%.
With `COc1cccc(-c2nc(SCC(=O)NC3CCCC3)c(-c3ccccc3)[nH]2)c1` the figure was inactive: -20.5%; with `COc1ccc(NC(=O)Cn2cnc3ccc(S(=O)(=O)N4CCC(C)CC4)cc3c2=O)cc1OC`, inactive: -0.984%; with `COc1ccc(-c2cnn3c(C)cc(C)nc23)cc1OC`, inactive: -8.64%.
Take `CCOc1ccc(-c2nc(SCC(=O)NC3CCCC3)c(-c3ccccc3)[nH]2)cc1OC`: the “activation” value is inactive: -19.4%.
With `Cc1c(-c2nsc(NC(=O)c3cccc(Cl)c3)n2)nnn1-c1ccccc1C(F)(F)F` the figure was inactive: -16.8%; with `CSc1ccc(CCNC(=O)CN2C(=O)c3cccnc3Oc3ccc(Cl)cc32)cc1`, inactive: -7.38%.
The value for `CCOc1ccc(CCNC(=O)CCc2c(C)nc3cc(-c4ccccc4OC)nn3c2C)cc1` was inactive: -20.7%; that for `CCCOc1ccc(C(=O)Nc2ccc(Cl)c(-c3nc4ncccc4o3)c2)cc1` was inactive: -9.48%.
With `O=C(CSc1nc(-c2cccs2)nc2cc(=O)[nH]n12)Nc1ccccc1F` the figure was inactive: -9.46%; with `CCOc1ccc(CCNC(=O)CSc2cc(=O)n(C)c3cc(Cl)ccc23)cc1OCC`, inactive: -21.1%.
On to `Cc1ccc(-c2noc(CCCC(=O)NCc3ccco3)n2)cc1`, for which the “activation” value was inactive: -28.5%.
The value for `Nc1c(-c2nc(-c3ccc4c(c3)OCO4)cs2)c2ccccn2c1C(=O)c1ccccc1` was inactive: -5.68%.
The value for `CCCCn1c(NCc2cc(Cl)ccc2O)nc2ccccc21` was inactive: -37.6%.
With `COc1cc(C(=O)N2CCc3c([nH]c4ccccc34)C2c2ccc(C)cc2)cc(OC)c1OC` (stereo unspecified) the figure was inactive: 13.4%.
For the compound `CCc1ccc(C(=O)c2cn(CC(=O)Nc3ccc4c(c3)OCO4)c3ccc(Cl)cc3c2=O)cc1`, the “activation” value was inactive: -1.34%.
Regarding `NS(=O)(=O)c1ccc(N2CCCCS2(=O)=O)cc1`, the “activation” value was inactive: -2.57%.
With `CCc1ccc(N(CC)C(=O)c2cn(C)c(=O)c3cc(OC)c(OC)cc23)cc1`, the “activation” value is inactive: -12.4%.
For `CCOc1ccc2c(c1)NC(c1ccc(OCC)c(OCC)c1)=NC(c1ccc(F)cc1)=N2`, the “activation” value was inactive: -16.8%.
As for `COc1ccccc1C(=O)NC(=O)Nc1ccc(-c2cc(C(F)(F)F)nn2-c2ccccc2)cc1`, the “activation” value is inactive: -8.55%.
The value for `Cc1ccc(S(=O)(=O)NCCc2nnc3ccc(SCC(=O)Nc4c(C)cc(C)cc4C)nn23)cc1` was inactive: -2.54%; that for `Cc1ccc(S(=O)(=O)N2CCCc3cc(NC(=O)c4ccc(Cl)cc4)ccc32)cc1` was inactive: 11.6%; that for `CCn1c(CNC(=O)c2ccc(OC)cc2)nnc1SCC(=O)Nc1cccc(C)c1` was inactive: -8.15%.
The value for `CCOc1ccc(CCNC(=O)c2c3c(nc4ccccc24)C(=O)N(C2CCCCC2)C3)cc1` was inactive: -39.4%; that for `CCN(CC)c1ccc(NC(=O)C2CCN(S(=O)(=O)c3c(C)noc3/C=C/c3ccccc3F)CC2)c(C)c1` was inactive: -3.84%.
The value for `CC(C)(C)C1CCc2c(sc3nc(-c4cc5cc(Cl)ccc5oc4=O)[nH]c(=O)c23)C1` (stereo unspecified) was inactive: -5.78%; that for `Cc1ccc(NC(=O)Cn2nc(C(F)(F)F)c3c2CCCC3)cc1` was inactive: -2.1%; that for `O=C(NCCc1ccccc1Cl)c1cc2ccccn2n1` was inactive: -13.9%.
Regarding `Cc1ccc(CC(=O)NCc2nc(-c3ccccc3)no2)cc1`, the “activation” value was inactive: -13.6%.
The value for `CCOC(=O)c1ccc(NC(=O)c2nc(SCc3ccc(F)cc3)ncc2Cl)cc1` was inactive: -13.8%; that for `COC(=O)c1c(NC(=O)c2cc(=O)c3cc(C)cc(C)c3o2)sc2c1CCC2` was inactive: -13.5%; that for `COc1ccccc1NC(=O)c1cc2cc3ccc(OC)c(Cl)c3nc2s1` was inactive: -16%.
The value for `Cc1cc(SCC(=O)Nc2ccc(F)cc2F)nc(=O)[nH]1` was inactive: -4.84%; that for `COc1ccc2ncc3c(-c4ccc(C)c(C)c4)nn(CC(=O)Nc4ccccc4)c3c2c1` was inactive: -10.9%.
With `CCCCn1c(=O)c2oc3ccccc3c2n(Cc2ccc(C)cc2)c1=O`, the “activation” value was inactive: 23.9%.
The value for `COc1cccc(C(=O)Nc2nc(-c3nnn(-c4cccc(Cl)c4C)c3C)ns2)c1` was inactive: -0.728%.
The value for `COc1ccc2c(CNCc3ccco3)c(C(=O)O)n(Cc3cccc(F)c3)c2c1` was inactive: -4.12%.
The value for `COc1ccc(NC(=O)Cn2c(=O)n(-c3ccc(OC)cc3)c(=O)c3sc4ccccc4c32)cc1` was inactive: -1.15%; that for `COc1ccc(CNc2ncnc3c2c(-c2ccccc2)cn3-c2ccc(C)c(Cl)c2)cc1` was inactive: -8.57%; that for `O=C(Cn1cc(S(=O)(=O)Cc2ccccc2F)c2ccccc21)Nc1ccc(F)c(Cl)c1` was inactive: -41.1%.
Turning to `COc1cc(C(=O)Nc2cc(C)c(O)c(-c3nc4ccccc4s3)c2)cc(OC)c1OC`, the “activation” value is inactive: -24.2%.
With `O=C(NCCO)c1ccc(-c2nnc(Nc3ccc(OC(F)(F)Cl)cc3)c3ccccc23)cc1` the figure was inactive: -20.3%.
The value for `CCCN(CCC)C(=O)C1CCN(c2cc(C)nc3c(-c4ccc(Cl)cc4)c(C)nn23)CC1` was inactive: -10.2%; that for `Cn1c(NCCCO)nc2c1c(=O)n(Cc1cccc(F)c1)c(=O)n2C` was inactive: -23.9%.
As for `COc1ccc(C(=O)Nc2ccc(-c3nc4ccccc4s3)c(Cl)c2)cc1Cl`, the “activation” value is inactive: 2.62%.
The value for `Cc1ccc(-c2c(C(=O)Nc3ccccc3F)oc(=O)c3ccccc23)cc1` was inactive: -10%; that for `CCCc1nn2c(=O)cc(COC(=O)c3ccc4c(c3)OCO4)nc2s1` was inactive: -1.33%; that for `Cc1cc2nc(-c3ccc(OCc4ccccc4F)cc3)cc(C(F)(F)F)n2n1` was inactive: -7.9%.
With `Cc1ccc(C)c(NC(=O)c2oc(=O)c3ccccc3c2-c2ccccc2)c1` the figure was inactive: -9.66%; with `Cc1ccc(C)c(Cn2c(SCC(=O)NCc3ccccc3)nc3ccccc32)c1`, inactive: -12%; with `Cc1ccc(C)c(N2CCN(C(=O)Cn3cnc4nc5c(cc4c3=O)CCCC5)CC2)c1`, inactive: -21.9%.
With `CCOC(=O)c1cccc(NC(=O)C2=C(C)C(=O)OC23CCCCC3)c1` the figure was inactive: -14.8%; with `Cn1c(NCCN)nc2c1c(=O)n(Cc1ccccc1)c(=O)n2C`, inactive: -18.5%.
In the case of `COc1ccc(N2CCN(C(=O)C3CCCN(S(=O)(=O)c4ccc5c(c4)oc(=O)n5C)C3)CC2)cc1` (stereo unspecified), the “activation” value is inactive: -9.39%.
